Article PMC4336329 (PLoS ONE, 2015)
Among all 310,000 compounds or so, about 2,200 (0.71%) showed an effect of 50% or more. The effect is printed as a negative number. The list shows a part of the results.

target: human ether-à-go-go-related gene (hERG) potassium channel (human, UniProt Q12809); assay: primary screen, population patch clamp on CHO cells stably expressing hERG
Sequence (Q12809 whole entry, looked up): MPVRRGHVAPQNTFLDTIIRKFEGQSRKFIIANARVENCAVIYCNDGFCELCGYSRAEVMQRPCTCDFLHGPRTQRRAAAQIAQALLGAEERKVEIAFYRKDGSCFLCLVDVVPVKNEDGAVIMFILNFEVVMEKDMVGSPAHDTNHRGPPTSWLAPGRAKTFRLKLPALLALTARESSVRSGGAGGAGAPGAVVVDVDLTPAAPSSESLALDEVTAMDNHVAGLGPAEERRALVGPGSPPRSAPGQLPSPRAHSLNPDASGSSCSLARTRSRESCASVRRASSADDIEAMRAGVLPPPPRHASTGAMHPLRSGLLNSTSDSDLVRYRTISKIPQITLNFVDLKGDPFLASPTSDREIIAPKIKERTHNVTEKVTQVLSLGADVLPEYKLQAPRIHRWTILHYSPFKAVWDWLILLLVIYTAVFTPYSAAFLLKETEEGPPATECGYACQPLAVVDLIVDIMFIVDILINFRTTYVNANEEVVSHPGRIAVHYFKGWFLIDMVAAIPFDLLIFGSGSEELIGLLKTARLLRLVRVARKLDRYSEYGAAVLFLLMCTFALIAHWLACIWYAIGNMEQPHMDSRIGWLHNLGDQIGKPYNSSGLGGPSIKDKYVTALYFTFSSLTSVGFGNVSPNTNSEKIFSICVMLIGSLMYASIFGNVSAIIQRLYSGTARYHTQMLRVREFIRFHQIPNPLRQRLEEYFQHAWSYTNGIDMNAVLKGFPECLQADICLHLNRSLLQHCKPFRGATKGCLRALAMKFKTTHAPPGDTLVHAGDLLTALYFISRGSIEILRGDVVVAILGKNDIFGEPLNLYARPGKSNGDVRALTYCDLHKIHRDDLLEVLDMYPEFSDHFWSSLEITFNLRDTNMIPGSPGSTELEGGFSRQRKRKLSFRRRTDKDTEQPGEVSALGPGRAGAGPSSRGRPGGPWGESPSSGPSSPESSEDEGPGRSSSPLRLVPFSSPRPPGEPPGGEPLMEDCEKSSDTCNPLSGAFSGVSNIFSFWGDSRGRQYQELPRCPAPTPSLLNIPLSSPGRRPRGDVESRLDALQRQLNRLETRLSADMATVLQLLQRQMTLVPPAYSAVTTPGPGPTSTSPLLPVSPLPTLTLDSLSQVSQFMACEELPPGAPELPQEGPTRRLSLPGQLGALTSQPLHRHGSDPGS

| Structure (SMILES) | hERG current change (%, negative = inhibition) at 1uM [%] |
| --- | --- |
| Cc1ccc(OCc2cc(C(=O)N(C)CC3CCOCC3)no2)cc1C | -0.274 |
| COc1cc2c(N3CCOCC3)cc(O)c(CC(=O)Nc3ccccc3)c2cc1OC | 15.2 |
| Cc1ccc(C)c(NC(=O)CN2C(=O)NC(C)(c3ccc4c(c3)OCCO4)C2=O)c1 (centres unmarked) | 8.8 |
| COc1cc(CNc2ncn[nH]2)ccc1OCc1ccccc1C | 7.95 |
| Cc1nc2ccc(NC(=O)c3cccc(C(F)(F)F)c3)cc2o1 | 1.84 |
| O=C(CN1C(=O)CCC1=O)Nc1ccc(Br)cc1 | 4 |
| Cc1cc(C(=O)NCc2cccs2)ccc1[N+](=O)[O-] | -0.699 |
| C=Cn1cc[n+](CC(=O)c2cc(C(C)(C)C)c(O)c(C(C)(C)C)c2)c1.[Br-] | 18 |
| Cc1ccc(C)c(N(C(=O)Cn2nnc(-c3cccs3)n2)C(C(=O)NC2CC2)c2ccc(C)o2)c1 (centres unmarked) | 1.75 |
| Cc1nc2c3ccccc3nc(SCC(=O)N3CC(C)CC(C)C3)n2n1 (centres unmarked) | 0.521 |
| Cc1c(C=O)c2ccccn2c1C(=O)c1cccc([N+](=O)[O-])c1 | 10.2 |
| O=c1[nH]c(=S)[nH]c2[nH]c(=S)[nH]c12 | 14.2 |
| O=C(CSc1nc(O)c(C2CCCCC2)c(=O)[nH]1)Nc1ccc(F)cc1 | 16 |
| COc1ccc(CNC(=O)c2ccc(NC(=O)CC3SC(N4CCCCC4)=NC3=O)cc2)cc1 (centres unmarked) | 8.15 |
| CN(C)/C=C/C(=O)c1cnc(-c2ccc(Cl)cc2)s1 | 0.981 |
| CCc1nnc(NC(=O)CSc2nnc(COc3cccc(C)c3)o2)s1 | 14.9 |
| O=C(NNC(=O)C1CC(=O)N(Cc2ccccc2)C1)c1ccc(Br)cc1 (centres unmarked) | 5.96 |
| O=C(CSc1nnc(Cc2ccccc2)o1)c1ccccc1 | 7.87 |
| Cc1nc2ccccc2c(=O)n1-c1cccc(NS(=O)(=O)c2ccccc2)c1 | -5.49 |
| CCNC(=S)/N=C(/Nc1ccccc1)Nc1nc(C)cc(C)n1 | 10.4 |
| Cc1nc(NS(=O)(=O)c2ccc(Br)cc2)c2c3c(sc2n1)CCC3 | 4.79 |
| CCN(CC)CCN1C(=O)C(O)=C(C(=O)c2sc(C)nc2C)C1c1cccnc1 (centres unmarked) | 14.2 |
| CC(=O)c1ccc(OC(=O)C2CSC3(C)CCC(=O)N23)cc1 (centres unmarked) | 10.3 |

| Structure (SMILES) | hERG current change (%, negative = inhibition) at 1uM [%] |
| --- | --- |
| C#CCNC(=O)C1=C[C@H](c2cn(C(C)=O)c3ccccc23)[C@@H](CCCO)[C@H](OCC)O1 | -3.26 |
| O=C(NCc1cccc(Cl)c1)NCc1cccc(Cl)c1 | -7.94 |
| Cc1ccc(NC(=O)NC(=O)COc2ccccc2C(N)=O)c(C)c1 | 9.35 |
| Nc1ccccc1CNc1nc(NCCO)nc2c1ncn2CCN1CCOCC1 | 4.54 |
| Cc1cc2nc(CCN(Cc3cccnc3)C(=S)Nc3ccc(F)cc3)[nH]c2cc1C | 12.4 |
| NS(=O)(=O)c1ccc(CCNC(=O)c2cc(-c3ccccc3)nc3ccccc23)cc1 | -1.32 |
| CCOC(=O)c1c(NCC(C)C)c2ccccc2[nH]c1=O | 5.78 |
| CC(C)C(=O)Nc1ccc(N2CCCC2)c(Cl)c1 | 20.2 |
| CCOC(=O)CN(c1cccc(C(C)=O)c1)S(C)(=O)=O | 5.94 |
| CCN(CC)CC.O=C1NC(=S)S/C1=C1\Sc2ccccc2N1CCCS(=O)(=O)O | 16.4 |
| CC1CCCC(C)N1CC(O)COc1ccc(Cl)cc1 (centres unmarked) | -57.6 |
| CCCCCCCC1=CC2=CC(=O)C(C)(OC(C)=O)C(=O)C2=CN1CCc1ccccc1 (centres unmarked) | -2.78 |
| Cc1ccc(SCCSc2nc(N)cc(=O)[nH]2)cc1 | 12.8 |
| CCn1c(CSc2ncccn2)nnc1SCC(=O)N1c2ccccc2CC1C (centres unmarked) | 4.13 |
| CC(OC(=O)c1cc2c(s1)CCCCC2)C(=O)NC(N)=O (centres unmarked) | -1.42 |
| CC(C)c1cc(C(=O)Nc2cccc(C(F)(F)F)c2)no1 | 14 |
| CCOC(=O)c1sc(=S)n(CC)c1NC(=O)CC | 11.2 |
| COC(=O)c1cc(C(=O)Nc2nnc(CC(C)C)s2)cc([N+](=O)[O-])c1 | 2.11 |
| Cc1nn(C)c(C)c1S(=O)(=O)N1CCC(C(=O)NC(C)c2ccccc2)CC1 (centres unmarked) | 14 |
| CCOC(=O)C1CCN(C(=O)c2ccc3c(c2)NC(=O)/C(=C/c2ccccc2)S3)CC1 | 11.9 |
| CCOc1ccc(-c2nc(C#N)c(NC3CC3)o2)cc1 | 10.8 |
| O=C(Cn1nc(-c2cccs2)ccc1=O)Nc1ccc(Br)cc1 | -6.2 |
| CC(=O)Nc1ccc(S(=O)(=O)N2CCC(NC(=O)c3ccccc3)CC2)cc1 | 14.6 |

| Structure (SMILES) | hERG current change (%, negative = inhibition) at 1uM [%] |
| --- | --- |
| Cn1c(SCC(=O)Nc2ccc3cn[nH]c3c2)nnc1-c1cccs1 | -5.92 |
| CC(=O)Nc1ccc(NS(=O)(=O)c2cn(C)c(=O)n(C)c2=O)cc1 | 6.39 |
| CC1=CC(c2ccccc2)n2nc(NS(=O)(=O)c3ccc(C)cc3)nc2N1 (centres unmarked) | -2.76 |
| CCOc1ccc(NC(=O)CN2C(=O)C(C)SC(C)C2=O)cc1 (centres unmarked) | 3.37 |
| COc1ccc2c(c1O)-c1c(OC)c(OC)cc3c1[C@H](C2)N(C)CC3 | -2.13 |
| Cc1ccc(CN(C(=O)c2ccccc2C)C2CCS(=O)(=O)C2)o1 (centres unmarked) | -7.14 |
| COCCN1CC(C(=O)N2CCC(Oc3ccccc3OC)CC2)CCC1=O (centres unmarked) | -5.44 |
| O=C(OCc1nnc(-c2ccc(Cl)cc2)o1)c1ccc(=O)n(Cc2ccccc2)n1 | 5.81 |
| O=C(O)c1cc(N/N=C/c2ccc(N3CCOCC3)cc2)ccc1Cl | 3.86 |
| O=C1Nc2ccc(F)cc2C12OCCO2 | 16.7 |
| Cc1cc(-c2ccccc2)c2ccc(NC(=O)C(C)(C)C)nc2n1 | 11.7 |
| CCOc1ccc(-c2nnc(-c3cccnc3)o2)cc1OCC | -22.8 |
| COc1ccc(CC(=O)OCC(=O)Nc2ccc3c(c2)OCO3)cc1OC | 9.33 |
| O=C(/C=C/c1cccc([N+](=O)[O-])c1)NCCSCc1cccc(Cl)c1 | 7.06 |
| CC(C)c1nnc(SCC(=O)NC2CCCC2)n1C | 16.6 |
| CC(C)c1[nH]c(=O)c(C#N)c2c1COC(C)(C)C2 | -22.2 |
| C=C(C)CN1CCN(c2c(CCC#N)c(C)c(C#N)c3nc4ccccc4n23)CC1 | -0.835 |
| S=C(Nc1cccc2ccccc12)N1CCN(c2ncccn2)CC1 | 17.5 |
| C=C(C)Cn1c(=S)[nH]c2ccccc2c1=O | 5.35 |
| CCOC(=O)c1c(C=O)c(C)n(Cc2ccccc2Cl)c1C | 11.8 |
| O=C(Nc1cc(S(=O)(=O)N2CCOCC2)ccc1N1CCCC1)c1ccc(F)cc1 | -10.7 |
| CCOC(=O)c1c(C)n(-c2ccc(C)cc2)c2c(CC(C)=O)c(Br)c(OC)c(O)c12 | 20 |
| COc1ccc(S(=O)(=O)NCC(=O)N(CC(=O)NCc2ccco2)Cc2ccc(F)cc2)cc1 | 0.43 |

| Structure (SMILES) | hERG current change (%, negative = inhibition) at 1uM [%] |
| --- | --- |
| CN(C)C=Nc1c(Br)cc(Br)c2nonc12 | -11.8 |
| CC(C)Oc1ccc(C2c3c(oc4ccccc4c3=O)C(=O)N2CCCN2CCOCC2)cc1 (centres unmarked) | -4.7 |
| O=C1NC(=O)N(c2ccccc2)C(=O)/C1=C/c1ccc2c(c1)Cc1ccccc1-2 | 13.6 |
| CCOC(=O)CSc1nc(C)cc(C)c1C#N | 8.12 |
| O=C(OCCN=C1NS(=O)(=O)c2ccccc21)c1cccc([N+](=O)[O-])c1 | 12.8 |
| CN(Cc1nc(-c2cccnc2)no1)S(=O)(=O)c1ccccc1 | -4.45 |
| Cc1ccc(NC(=O)/C(C#N)=C/c2ccsc2)c(C)c1 | 15.6 |
| CC(=O)NC(O)C(=O)c1ccco1 (centres unmarked) | 14.8 |
| Cc1ccc(CC(=O)NCCS(=O)c2ccc(C)cc2)cc1 (centres unmarked) | 8.71 |
| O=C(NC(N1CCCCCC1)C(Cl)(Cl)Cl)c1ccccc1Cl (centres unmarked) | 12.9 |
| COc1ccc(C(=O)Nc2ccccc2C(=O)Nc2cc(C)ccn2)cc1 | 9.08 |
| COc1ccccc1N1CCN(C(=O)c2ccc(COc3cccc4c3OC(C)(C)C4)cc2)CC1 | 4.86 |
| Cc1ccc(OCc2nnc(N)s2)cc1C | 13.9 |
| COc1ccc(C(C)=O)cc1CN1C(=O)NC2(CCCCCC2)C1=O | -3.38 |
| COc1ccc(C(=O)/C=C/c2ccc(C)cc2)c(OC(=O)c2ccc([N+](=O)[O-])cc2)c1 | 6.76 |
| O=S(=O)(c1ccc(S(=O)(=O)N2CCCN(Cc3ccccc3)C2)cc1)N1CCCCCC1 | 10 |
| COc1ccc(CCNC(=O)C2c3ccccc3C(=O)N2CCC(C)C)cc1OC (centres unmarked) | 13.8 |
| CCOc1ccc(-c2cc(C(=O)NCCCN3CCN(CC)CC3)c3ccccc3n2)cc1 | -4.12 |
| NC(=O)Cn1nnc(-c2ccccc2NC(=O)c2cnccn2)n1 | 11.3 |
| CC1CCN(C(=O)CN2C(=O)C(=O)N(C(C)C)C2=O)c2ccccc2S1 (centres unmarked) | 3.69 |
